Test results taken from article PMC12040169 (PLOS Biology, 2025).
This is one part of the list.

system: T1, C. trachomatis L2/434/Bu expressing GFP (CTL2-GFP); set-up: species or system HeLa; C. trachomatis total inclusion area by high-content imaging, normalised to DMSO; conditions: total inclusion area; 28.5 h, 10 µM; inhibitor
T1 construct: L2/434/Bu GFP intracellular growth in HeLa cells
Outline: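 High-content images of fixed, Hoechst-stained infected cultures supply inclusion area and count (growth) plus nuclei number (viability), complementing bulk GFP/resorufin fluorescence. MIC determination is unchanged from the primary assay.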

Row | Structure (SMILES) | % of control remaining
1 | Cc1noc(C2(O)CCN(Cc3cccc(Cl)c3F)C2)n1 (stereo not shown) [CBK304748] | 5.797
2 | Cc1nccn1CC1(O)CCN(CC(C)c2ccccc2)CC1 (stereo not shown) [CBK284954] | 84.5774
3 | Cc1nnc(SCCOc2ccc(Cl)c(C)c2)s1 [CBK026160] | 57.0927
4 | CCn1c(=O)n(CC(C)(C)O)c2cc(S(=O)(=O)N(C)C)ccc21 [CBK304893] | 73.7772
5 | Cc1ccc(C(=O)CCC(=O)N2CCCC2c2ccc(F)cc2)cc1 (stereo not shown) [CBK297885] | 81.3099
6 | CCN(Cc1ccncc1)C(CC1CCCCC1)c1ccccc1 (stereo not shown) [CBK061639T] | 79.5399
7 | Nc1ncc(-c2ccc(N3CCOCC3)cc2)nc1N1CCN(CCO)CC1 [CBK063394] | 114.735
8 | CCc1nn(CC(=O)N2CCC(C)CC2)c(=O)c2cc3occc3n12 [CBK283675] | 101.139
9 | O=C(Cc1c(O)c2ccccc2[nH]c1=O)NCc1ccc(Cl)cc1 [CBK160317] | 90.0507
10 | Cc1nc2ccc(NC(=O)CC3CCN(S(=O)(=O)c4cccc(F)c4)CC3)cc2[nH]1 [CBK285903] | 104.491
11 | CC(=O)c1ccc(S(=O)(=O)NCC2CC2)cc1 [CBK044440] | 124.519
12 | O=C(CCc1ccccc1)N1CCC(c2n[nH]c3ncccc23)CC1 [CBK284906] | 93.3733
13 | CCN(Cc1ccc(C#N)cc1F)C(=O)C(NC(=O)OC)C(C)C (stereo not shown) [CBK306372] | 88.6353
14 | CCc1ccc2nc3c(cc2c1)CNCCO3 [CBK281940] | 88.4397
15 | O=C(O)C1(Cc2cccc(-c3cccs3)c2)CCCNC1 (stereo not shown) [CBK281688] | 79.7509
16 | Cc1ccc(CNC(=O)CSc2nnc(-c3ccncc3)n2-c2ccccc2)cc1 [CBK266654] | 118.876
17 | COc1ccc(-c2cnc(N)c(NC3CCOCC3)n2)c(OC)c1OC [CBK063844] | 44.9356
18 | COc1ccccc1CN(C)C(C)C(=O)Nc1ccc(S(N)(=O)=O)cc1 (stereo not shown) [CBK305839] | 54.7169
19 | O=C(NCCNc1cnccn1)c1ccc(Br)cc1F [CBK305639] | 101.556
20 | CC(=O)Nc1ccc(S(=O)(=O)NC2(C(F)(F)F)C(=O)Nc3c2c(=O)[nH]c(=S)n3Cc2ccco2)cc1 (stereo not shown) [CBK268395] | 81.0272
21 | CC(C)[C@H](CO)Nc1cncc(-c2cccc(N(C)C)c2)n1 [CBK065547] | 128.611

Row | Structure (SMILES) | % of control remaining
22 | CN1CCC(N(C)C(=O)NCc2c(Cl)cccc2Cl)C1 (stereo not shown) [CBK156014] | 128.433
23 | CC(C)(C)C(=O)c1cnc2sc3ccccc3n12 [CBK016512] | 76.6671
24 | CCOC(=O)C(NCc1nc(-c2cccc(C(F)(F)F)c2)no1)C(C)C (stereo not shown) [CBK305445] | 117.827
25 | Cc1sc2nc(SCCCC(=O)NCCO)nc(N)c2c1C [CBK264482] | 99.8038
26 | CSc1ccccc1CNC(=O)Cn1nnc(-c2ccc(CN3CCC(C)CC3)cc2)n1 [CBK144573C] | 83.6769
27 | O=C(CSc1cccs1)Nc1nccs1 [CBK019601] | 81.0785
28 | COc1cccc(CC(=O)Nc2ncccc2OCCCC#N)c1 [CBK304961] | 47.3117
29 | O=C(NCc1cccc(C(F)(F)F)c1)N1CCN(c2ccc(F)cc2)CC1 [CBK156390] | 104.479
30 | CN(C)c1nc(Cl)c(C=Cc2cc(C(=O)O)c3ccccc3n2)s1 [CBK298272] | 142.471
31 | CC(NC(=O)c1ccccc1)C(=O)OCn1nnc2ccccc2c1=O (stereo not shown) [CBK297001] | 73.4863
32 | CN1CCC2(CCC1=O)CC(NC(=O)C1CC1)c1ccccc1O2 (stereo not shown) [CBK284455] | 57.6598
33 | O=C(Cc1ccccc1)N1CCN(Cc2ccc3ccccc3c2)CC1 [CBK263037] | 83.6842
34 | O=C(O)c1nsnc1C(=O)O [CBK278311K] | 90.3455
35 | COc1cc(-c2cnc(N)c(NCc3ccncc3)n2)cc(OC)c1OC [CBK063646] | 142.861
36 | Cc1ccc(-c2n[nH]c(=S)n2CCC(=O)N(C)Cc2ccc(N3CCCCC3)cc2)cc1 [CBK297904] | 58.6739
37 | Cc1ccc(-c2cc(C(=O)N(C)Cc3cccn3C)[nH]n2)o1 [CBK283324] | 82.1404
38 | CC(C)(C)C(=O)/N=c1/[nH]nc(-c2cccnc2)s1 [CBK288203] | 101.311
39 | COc1ccc(C(CC(=O)O)c2ccc3c(c2)OCCO3)cc1OC (stereo not shown) [CBK287121] | 120.144
40 | Nc1nn2c(c1Cc1c(Cl)cccc1Cl)OC(=O)CCC2=O [CBK093439] | 80.1122
41 | CC(=O)N1CCCc2cc(NC(=O)NCCc3cnn(C)c3)ccc21 [CBK304937] | 27.5025
42 | O=C(O)CNS(=O)(=O)c1ccc(-c2ccccc2)cc1 [CBK034457] | 113.527

Row | Structure (SMILES) | % of control remaining
43 | Cc1ncccc1COC(=O)N1c2ccccc2CCC1C (stereo not shown) [CBK200204] | 52.5084
44 | CCn1cc(CN(C)Cc2nccs2)c2cc(C(=O)O)ncc21 [CBK306512] | 67.7723
45 | N#Cc1ccc(-c2cncc(NC3CCC(O)CC3)n2)cc1 (stereo not shown) [CBK166007T] | 76.378
46 | N#C/C(=C/c1cc(Cl)c(OCc2ccc([N+](=O)[O-])cc2)c(Cl)c1)c1ccc(C(=O)O)cc1 [CBK269098] | 87.507
47 | Cn1ccnc1Sc1nc2ccccc2nc1C(F)(F)F [CBK093778] | 84.7712
48 | CCc1onc(-c2ccccc2)c1C(=O)NCCO [CBK160434] | 88.0671
49 | O=C(NCc1ccccc1)c1ccc2nc[nH]c2c1 [CBK143739] | 102.158
50 | Cc1ncccc1COC(=O)N1CCC(C(F)(F)F)CC1 [CBK200154] | 86.8901
51 | Cc1ccc(NC(=O)Cn2cnc3c(cnn3-c3ccc(C)cc3)c2=O)cc1 [CBK287534] | 112.034
52 | COc1ccnc(N2CCC(Oc3cccnc3N(C)C)C2)n1 (stereo not shown) [CBK304699] | 53.6088
53 | Cn1nc(C2CCCC2)cc1[C@H]1CN2CC[C@H]1C[C@@H]2CNS(C)(=O)=O [CBK288742] | 88.5641
54 | COc1ccc([C@@]23CC[C@@H](NS(=O)(=O)c4ccc5ccccc5c4)C[C@@H]2N(C)CC3)cc1OC [CBK056848T] | 89.3241
55 | Cc1cc(C(=O)NCCC(=O)O)c2ccccc2n1 [CBK286573] | 76.8152
56 | Cc1nc(C)c(C(=O)N2C3CCC2c2cc(Cl)cnc2C3)s1 (stereo not shown) [CBK284953] | 89.0123
57 | COc1ccccc1NC(=O)N1C[C@@H]2C[C@H](C1)c1c(-c3ccccc3F)ccc(=O)n1C2 [CBK289192] | 99.4223
58 | O=C1CNC(=O)C2(C/C=C/C[C@H]3COCC[C@@H]3N1)CCN(C(=O)c1cccc(Cl)c1)CC2 [CBK292066] | 105.248
59 | Cc1cccn2cc(CCNC(=O)CN(C)C3CCSC3)nc12 (stereo not shown) [CBK304027] | 95.4641
60 | CC(C)NC(=O)NC[C@H]1C[C@@H]2CCN1C[C@@H]2c1cc(C2CCCCC2)nn1C [CBK289107] | 89.0111
61 | Cn1c2c(c3ccccc31)C(=O)NCC2 [CBK003517] | 99.9961
62 | CCCn1ccnc1SCC(=O)Nc1ccc(N(C)C)cc1 [CBK304996] | 71.0494
63 | Cc1cccc(N(CC(=O)Nc2cccnc2)S(=O)(=O)c2ccc(Cl)cc2)c1 [CBK268676] | 102.159

Row | Structure (SMILES) | % of control remaining
64 | COc1cc(C2C(C(=O)c3cccs3)=C(O)C(=O)N2Cc2cccnc2)ccc1O (stereo not shown) [CBK264605] | 91.2989
65 | Cc1sc2ncn(CC(=O)Nc3cccnc3)c(=O)c2c1C [CBK306057] | 58.2524
66 | COc1ccc(S(=O)(=O)NCCCN2CCOCC2)c(Cl)c1Cl [CBK269792] | 80.3792
67 | CSCCC(NC(=O)c1ccccc1NC(=O)c1ccc(C)cc1)C(=O)O (stereo not shown) [CBK296067] | 85.1723
68 | O=C(O)c1ccc2c(c1)C1C=CCC1C(c1cccc([N+](=O)[O-])c1)N2 (stereo not shown) [CBK287008] | 101.204
69 | N#CC(C(=O)CN1CCCC1)c1ccccc1 (stereo not shown) [CBK269333] | 114.607
70 | O=C(Nc1ncnc2c1ccn2C1CC(O)C(CO)O1)c1ccccc1 (stereo not shown) [CBK201289] | 105.43
71 | N#CCCN(C(=O)NCCOc1ccccc1)C1CCCCC1 [CBK156374] | 105.921
72 | O=C(O)CNC(=O)c1ccc(S(=O)(=O)N2CCCC2)cc1 [CBK267434] | 99.0585
73 | CC(=O)Nc1cccc(-c2nc(-c3ccc(C#N)cc3)cnc2N)c1 [CBK113659] | 82.488
74 | COc1nc2ccccc2nc1CCC(=O)O [CBK269356] | 98.8075
75 | O=C(CNc1ccc2ccccc2c1)N/N=C/c1cc2c(cc1[N+](=O)[O-])OCO2 [CBK261126] | 38.0361
76 | CCc1nc2ccc(NC(=O)c3csc(C(C)=O)c3)cc2[nH]1 [CBK282538] | 98.0049
77 | Cc1cc(C)n(CC(=O)Nc2nc(CN3CCC(C)CC3)cs2)n1 [CBK305592] | 42.7483
78 | OCc1ccccc1-c1cncc(Nc2cccc(Cl)c2)n1 [CBK065400] | 82.9692
79 | O=S1(=O)CCN(Cc2ccc3c(c2)OCO3)CC1 [CBK074780] | 100.974
80 | CC(C)(C)O/N=C/c1cccnc1 [CBK015761C] | 70.8926
81 | O=C(c1ccc(-n2ccnc2)c(-n2cccc2)c1)N1CCSCC1 [CBK285364] | 115.032
82 | O=C(CCCC1CCNCC1)Nc1nnc(C2CC2)s1 [CBK169224] | 83.939
